# Experimental data: the supplement of paper PMC3334620
# In all, about 33,000 sequences were measured (“E-score (-0.5 to 0.5)”: median about -0.011, highest 2% from about 0.28 on). Some of the results follow.
# Biological target: T1, Gcr1 (UniProt P07261)
# T1 sequence: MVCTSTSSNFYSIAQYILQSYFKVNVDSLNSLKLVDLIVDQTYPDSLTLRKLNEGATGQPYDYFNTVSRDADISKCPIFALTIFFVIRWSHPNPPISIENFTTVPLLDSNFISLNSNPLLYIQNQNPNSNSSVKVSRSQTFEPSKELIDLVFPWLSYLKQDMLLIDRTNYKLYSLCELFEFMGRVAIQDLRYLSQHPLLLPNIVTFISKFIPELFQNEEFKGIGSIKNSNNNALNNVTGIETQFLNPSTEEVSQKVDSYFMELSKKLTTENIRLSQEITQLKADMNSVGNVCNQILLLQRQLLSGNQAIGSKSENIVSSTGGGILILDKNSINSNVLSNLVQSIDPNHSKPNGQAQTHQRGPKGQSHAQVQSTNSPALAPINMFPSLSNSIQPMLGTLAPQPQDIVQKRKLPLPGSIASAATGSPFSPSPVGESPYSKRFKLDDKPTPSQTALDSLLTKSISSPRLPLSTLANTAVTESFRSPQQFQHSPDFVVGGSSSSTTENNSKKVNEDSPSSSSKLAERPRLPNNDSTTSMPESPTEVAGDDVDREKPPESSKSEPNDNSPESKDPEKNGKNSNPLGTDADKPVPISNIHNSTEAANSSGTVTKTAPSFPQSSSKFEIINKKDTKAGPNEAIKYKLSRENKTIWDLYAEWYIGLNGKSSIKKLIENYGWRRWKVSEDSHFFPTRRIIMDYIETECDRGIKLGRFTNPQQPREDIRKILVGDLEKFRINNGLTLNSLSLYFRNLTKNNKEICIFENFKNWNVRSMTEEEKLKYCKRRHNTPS
# Assay: PBM E-score (8-mer binding enrichment) (E-score (-0.5 to 0.5)); higher = stronger / more preferred TF binding; most listed sequences are background and not binding sites
# Details: protein concentration: 100 nM; construct: GST-full length
# How it was run: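 E-scores (a modified Wilcoxon-Mann-Whitney statistic) were assigned by the Universal PBM Analysis Suite to every ungapped eight-base word pooled with its reverse complement. The input came from universal all-10-mer Agilent arrays made double-stranded by primer extension and probed with GST-tagged yeast transcription factors at about 100-200 nM. Fluorescent anti-GST detected bound protein, and masliner normalised the scans.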
row,Sequence,PBM E-score
1,CAGGACTA,0.157
2,CGATTTCA,-0.0176
3,CAACTATG,-0.0341
4,CCCTTGAC,-0.259
5,CTCTGCAG,-0.212
6,CTTTTTAA,0.0645
7,CGGCGTCA,0.0965
8,AAGATCTT,-0.262
9,CCCATCTC,-0.0861
10,CTCCGTAA,-0.00067
11,CGCACAGA,0.0152
12,CGCGACAG,0.0277
13,AAGCGGAG,-0.13
14,GAGGCCCA,0.025
15,AGCCCCTA,-0.0303
16,ACAGTGAA,-0.0758
17,GACCTGAC,-0.16
18,AGAGGGCG,-0.00957
19,GTAGGAGA,-0.0194
20,CCCAGTAG,0.0415
21,GGCATAAA,0.0465
22,AAAGACAG,-0.0683
23,CCTACTCA,-0.0585
24,CGTTTCCC,-0.0165
25,CTCGAGAG,-0.243

row,Sequence,PBM E-score
1,GGATAACC,-0.0798
2,AAGTTATC,-0.0108
3,TGAACTAA,0.0215
4,AATGTACC,0.191
5,CCATGGTA,-0.096
6,CATCCTGA,0.292
7,ACGGTGAG,-0.174
8,GAGATCGC,-0.18
9,ACATCCCC,0.0757
10,AGAAACGA,-0.066
11,ATGCCCCG,0.019
12,ACACGTTG,-0.0769
13,CCTCTGAG,-0.284
14,TACCGCAA,-0.254
15,CCCCCAAA,0.22
16,ACGTGTCA,-0.138
17,TCTGCGAA,-0.154
18,ACAGTTCT,-0.217
19,CGAGCAAG,-0.139
20,CTACGCGC,0.0481
21,GCGATTGA,-0.137
22,TAAGGCCA,-0.253
23,GCGGTGAC,-0.0909
24,AACAGAAG,0.143
25,GCGGGGCA,-0.0439

row,Sequence,PBM E-score
1,CAGCTTTC,-0.0293
2,CTACTCAA,0.00014
3,AAGGCACC,0.15
4,CCGTGTAA,-0.066
5,CCACAAGC,0.0911
6,CAACGCCG,-0.159
7,ACTCAGTA,-0.114
8,GACTCAGC,-0.0526
9,ACTCCGAG,0.0158
10,CGCCGTAC,-0.0824
11,GACGACCC,-0.0692
12,GCATCTAC,0.263
13,CTGCTCTC,-0.134
14,CATTTATC,-0.0711
15,AACTCCCT,-0.173
16,ACAAAACC,0.0617
17,GACAGATC,-0.235
18,ACTCAATG,-0.0119
19,ACGATTCT,0.00313
20,GTTTTATA,0.0312
21,GAGGGTAA,-0.157
22,ACCTCGGG,0.104
23,CAGGTCGC,0.155
24,CGGGGTAC,0.00884
25,ACTGTAGA,-0.079

row,Sequence,PBM E-score
1,ATGGGTTC,0.0375
2,AGGGTATA,-0.176
3,ATTTCTCA,-0.0426
4,TCAAATAA,0.152
5,GGGTCGAC,-0.247
6,CTCCGGCA,0.253
7,AATGTCGC,-0.023
8,ACACTTCC,-0.00565
9,GACCCAAC,-0.0192
10,ACCGTGTC,-0.0549
11,CCAAGGCA,-0.198
12,AAGCTTTA,-0.0561
13,CTCCTTTC,0.00102
14,CAGCGTAC,-0.31
15,ATATAGGA,0.225
16,CCATCACC,-0.0493
17,GGTCGCAA,0.123
18,ATCACTTG,-0.099
19,GCGGGGGA,-0.117
20,CGTATAAA,0.32
21,ATGTGATC,-0.0304
22,GCCTATCA,0.024
23,CATCGGAG,-0.14
24,CTGATCAA,-0.0595
25,CCAGCAGA,0.051

row,Sequence,PBM E-score
1,CTGCAAGC,-0.275
2,AGCGTGTA,0.112
3,ACAGTGTG,0.0195
4,AATCTAGG,0.116
5,CCTCAATC,0.0343
6,ACATAATA,0.0155
7,GTGGGTGA,-0.083
8,ACTGATGA,-0.0329
9,GAAACCGA,0.151
10,GAATAGAC,-0.15
11,GTTGATCA,-0.128
12,CCAAAAGG,0.143
13,CAATGCTG,-0.136
14,GGAGTACA,-0.0882
15,CTTGGCAA,-0.0483
16,CACGGGGG,-0.0867
17,TGACCTCA,-0.0854
18,CAAAAGCG,-0.0839
19,GGAATTCA,0.192
20,ACAAAACT,-0.00682
21,GGCACGAA,-0.121
22,ACTGGAGC,0.0795
23,CGTCGTAC,-0.145
24,AATTCAGA,0.106
25,CGACAAAC,-0.0253

row,Sequence,PBM E-score
1,CAGATCTG,-0.0872
2,AATTAAGT,0.0833
3,AGGGCTCC,0.143
4,CCTTGTCG,-0.101
5,ATCTCATG,-0.148
6,GGGACATA,-0.132
7,ACCAGAGC,0.123
8,AAGAATAG,-0.0247
9,AATGGAAC,0.154
10,CGAAAGCG,-0.182
11,ACTTGGCG,-0.0129
12,GCGACCCC,-0.169
13,AGTTGGTA,0.16
14,AACTCAAG,-0.0286
15,AATGCCAC,-0.0507
16,CCAGACGA,0.166
17,ATCTGGCA,0.267
18,ACGGCAAG,-0.211
19,ACTTGGAA,0.14
20,AAGGAGCT,-0.092
21,CTACATGC,-0.0548
22,GTCGTATA,0.106
23,ACAATAGT,-0.0855
24,AAGAATAA,0.0669
25,ACATCGGC,-0.112

row,Sequence,PBM E-score
1,GCATTCAC,-0.131
2,GCAAAGAC,0.0449
3,AACAGACG,0.0984
4,AAACTTCG,0.0969
5,ACCCGTTC,-0.115
6,AAGCCACC,0.0043
7,CCTGAGAG,-0.131
8,ATGACAAA,-0.02
9,CGAGCTAG,0.0701
10,CGTTTAAC,-0.0166
11,ACTAAACT,0.0295
12,AATTGGCT,0.0326
13,CGAAGGCG,0.0557
14,GTGTCATA,0.0928
15,AGAGGACA,-0.17
16,ATCTAACC,0.00072
17,CCCAACGG,-0.0188
18,AACCGCAT,0.0356
19,ATCGCGAC,-0.11
20,AGTTCGCA,-0.105
21,CTACTGTA,-0.103
22,TGGTCTAA,-0.272
